29 compounds from article PMC11995724, “Antibiotic target discovery by integrated phenotypic and activity-based profiling of electrophilic fragments” (Cell chemical biology, 2025) can be followed below.

The whole screen tested about 3,200 compounds, of which about 75 (2%) showed an effect of 50% or more. Some of the results follow.

The experiment has as its system T1, S. aureus MSSA476.
T1 construct: MSSA476
Further details: species or system S. aureus MSSA476 (TSB) or V. cholerae SAD30 (LB); 384-well bacterial growth screen at 25 uM, OD600 relative to DMSO control. The note with it: relative growth, OD600, TSB; 25 µM; inhibitor.
As for `C=CC(=O)NCc1c(Cl)c(C(F)(F)F)nn1C` [2-J07, N-{[4-chloro-1-methyl-3-(trifluoromethyl)-1H-pyrazol-5-yl]methyl}prop-2-enamide], the “% of control remaining” value is reported as 121.149%. For the compound `CC(Cl)C(=O)NC1CCCN(S(=O)(=O)N2CCOCC2)C1` (centres unmarked) [6-L03, 2-chloro-N-[1-(morpholine-4-sulfonyl)piperidin-3-yl]propanamide], the “% of control remaining” value was determined as 89.122%. The result for `C=CC(=O)N1CCOC(c2noc(C(C)C)n2)C1` (centres unmarked) [1-O05, 1-{2-[5-(propan-2-yl)-1,2,4-oxadiazol-3-yl]morpholin-4-yl}prop-2-en-1-one] reads 83.6923%. Consider `C=CC(=O)NC1CCN(c2ccccc2S(=O)(=O)CC)CC1` [2-M03, N-{1-[2-(ethanesulfonyl)phenyl]piperidin-4-yl}prop-2-enamide], for which the “% of control remaining” value was 102.35%. The result for `C=CC(=O)N(C)CC(=O)NC(C)(C)c1nc(C)cs1` [3-E14, N-methyl-N-({[2-(4-methyl-1,3-thiazol-2-yl)propan-2-yl]carbamoyl}methyl)prop-2-enamide] reads 93.6874%.

Consider `Cc1cccc(C)c1NC(=O)C(C#N)=Cc1ccc(C(=O)O)cc1` [9-G17, 4-{2-cyano-2-[(2,6-dimethylphenyl)carbamoyl]eth-1-en-1-yl}benzoic acid], for which the “% of control remaining” value was determined as 122.547%.

`C=CC(=O)NCc1nc2ccccc2s1` [1-I12, N-[(1,3-benzothiazol-2-yl)methyl]prop-2-enamide]: the “% of control remaining” value turned out to be 122.374%. The result for `CCCCNC(=O)C(C#N)=Cc1cc(C)c(O)c(C)c1` [9-E09, N-butyl-2-cyano-3-(4-hydroxy-3,5-dimethylphenyl)prop-2-enamide] reads 106.966%; that for `O=C(CCl)c1ccc(F)c(F)c1` [10-L13, 2-chloro-1-(3,4-difluorophenyl)ethan-1-one], 110.313%. Take `C=CC(=O)N1CCC(n2nc(C)nc2O)CC1` [3-P21, 1-[4-(5-hydroxy-3-methyl-1H-1,2,4-triazol-1-yl)piperidin-1-yl]prop-2-en-1-one]: the “% of control remaining” value turned out to be 126.077%. The result for `Cc1cccc(C)c1NC(=O)CNC(=O)C(C)Cl` (centres unmarked) [6-F10, 2-chloro-N-{[(2,6-dimethylphenyl)carbamoyl]methyl}propanamide] reads 107.22%; that for `O=C(CCl)NC(c1ccccc1)c1cccs1` (centres unmarked) [4-J14, 2-chloro-N-[phenyl(thiophen-2-yl)methyl]acetamide], 106.717%; that for `CC(Cl)C(=O)NC1CS(=O)(=O)Cc2ccccc21` (centres unmarked) [6-L20, 2-chloro-N-(2,2-dioxo-3,4-dihydro-1H-2lambda6-benzothiopyran-4-yl)propanamide], 96.9756%. Turning to `O=C(CCl)Nc1cc(C2CC2)nn1-c1ccccc1` [4-I15, 2-chloro-N-(3-cyclopropyl-1-phenyl-1H-pyrazol-5-yl)acetamide], the “% of control remaining” value turned out to be 91.8533%. On to `C=CC(=O)NCc1ccc2oc(=O)n(C)c2c1` [2-L15, N-[(3-methyl-2-oxo-2,3-dihydro-1,3-benzoxazol-5-yl)methyl]prop-2-enamide], for which the “% of control remaining” value came out at 113.838%. In the case of `CC(Cl)C(=O)N1CCCc2ccc(N(C)C)cc2C1` (centres unmarked) [7-C15, 2-chloro-1-[8-(dimethylamino)-2,3,4,5-tetrahydro-1H-2-benzazepin-2-yl]propan-1-one], the “% of control remaining” value turned out to be 97.3312%.

With `CCc1cccc(CC)c1NC(=O)CCl` [4-F10, 2-chloro-N-(2,6-diethylphenyl)acetamide], the “% of control remaining” value was found to be 109.004%. Consider `CN(Cc1ccccc1)S(=O)(=O)c1ccc(NC(=O)CCl)cc1` [5-K08, N-{4-[benzyl(methyl)sulfamoyl]phenyl}-2-chloroacetamide], for which the “% of control remaining” value worked out at 87.0674%. The same measure for `Cc1cc(CNC(=O)CCl)[nH]n1` [7-L22, 2-chloro-N-[(3-methyl-1H-pyrazol-5-yl)methyl]acetamide]: 99.843%. The result for `C=CC(=O)N1CCC(C(=O)N(C)Cc2cc(C(C)(C)C)[nH]n2)CC1` [2-F10, N-[(5-tert-butyl-1H-pyrazol-3-yl)methyl]-N-methyl-1-(prop-2-enoyl)piperidine-4-carboxamide] reads 100.957%. The result for `C=CC(=O)NC1CCN(Cc2ccccc2)C1` (centres unmarked) [1-N15, N-(1-benzylpyrrolidin-3-yl)prop-2-enamide] reads 116.044%; that for `CCc1cccc(CC)c1NC(=O)C(C#N)=Cc1ccc(C#N)cc1` [9-O15, 2-cyano-3-(4-cyanophenyl)-N-(2,6-diethylphenyl)prop-2-enamide], 88.3895%. `C=CC(=O)N1CCC[C@H]1C(=O)Nc1cccc(C)n1` [1-B10, (2S)-N-(6-methylpyridin-2-yl)-1-(prop-2-enoyl)pyrrolidine-2-carboxamide]: the “% of control remaining” value was determined as 113.231%. In the case of `CC(Cl)C(=O)NC1CCc2ccccc2-n2ccnc21` (centres unmarked) [7-E06, 2-chloro-N-{2,5-diazatricyclo[8.4.0.0,2,6]tetradeca-1(14),3,5,10,12-pentaen-7-yl}propanamide], the “% of control remaining” value was determined as 97.6452%. The same measure for `C=CC(=O)N1CCN(CC2CCOC2)CC1` (centres unmarked) [1-H18, 1-{4-[(oxolan-3-yl)methyl]piperazin-1-yl}prop-2-en-1-one]: 103.033%; for `CC(Cl)C(=O)NCc1ccc(Cl)cc1` (centres unmarked) [6-I04, 2-chloro-N-[(4-chlorophenyl)methyl]propanamide]: 97.6585%; for `C=CC(=O)NCc1ccc(C(=O)N2CCCC2C(=O)N(C)C)cc1` (centres unmarked) [2-D22, N,N-dimethyl-1-{4-[(prop-2-enamido)methyl]benzoyl}pyrrolidine-2-carboxamide]: 97.4761%. With `CC(Cl)C(=O)N1CCCC1c1nc(-c2ccccc2)n[nH]1` (centres unmarked) [7-I09, 2-chloro-1-[2-(3-phenyl-1H-1,2,4-triazol-5-yl)pyrrolidin-1-yl]propan-1-one], the “% of control remaining” value stood at 101.099%. Turning to `CNc1ccc(C=C(C#N)C(=O)Nc2ccccc2F)cc1[N+](=O)[O-]` [8-N09, 2-cyano-N-(2-fluorophenyl)-3-[4-(methylamino)-3-nitrophenyl]prop-2-enamide], the “% of control remaining” value worked out at 106.224%.
